We go through 1 compound from PMC7031403, “A molecular switch regulating transcriptional repression and activation of PPARγ” (Nature Communications, 2020).

This test relates to PPARγ LBD (WT or mutant) with NCoR ID2 peptide.

Turning to `O=C(Nc1ccncc1)c1cc([N+](=O)[O-])ccc1Cl` [T0070907], the “effect on binding of corepressor ID2 peptides to the PPARγ LBD” value (WT, NCoR ID2 and SMRT ID2 peptides) is on record as “enhances the binding”. Besides, where the note is “Y327A and K367A”, the “change in corepressor-peptide interaction, mutants” value was “no change in corepressor-peptide interaction”.
